From patent US20240002405A1, “ANTIMICROBIAL COMPOUNDS, SYNTHESIS METHODS, AND USES THEREOF” (Ankh Life Sciences Limited, priority 2022, published 2024) come the findings set out here.

This data set deals with engineered Salmonella typhimurium strain (umuC, β-galactosidase). The settings on record: GK524 vs GK517.3 vs GK506.2Im, with and without S9.

Structures are written as SMILES.

With `COc1ccc2c3c([nH]c2c1)C(CC(CC1=NCCc2c1[nH]c1cc(OC)ccc21)c1c[nH]cn1)=NCC3` [1,1′-(2-(1H-imidazol-4-yl)propane-1,3-diyl)bis(7-methoxy-4,9-dihydro-3Hpyrido[3,4-b]indole)], the “genotoxicity, comparison in words” value was “High genotoxic activity”.

Consider `COc1ccc2c3c([nH]c2c1)C(CC(CC1=NCCc2c1[nH]c1cc(OC)ccc21)c1cncs1)=NCC3` [GK524], for which the “genotoxicity, comparison in words” value is reported as “lowest toxicity”.
